This is an account of results in PMC4336329 (PLoS ONE, 2015).

The campaign covered roughly 310,000 compounds. About 14,000 (4.5%) showed an effect of 50% or more. The effect is printed as a negative number. The list shows a part of the results.
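Also: peak tail current of the secondary pulse compared with the same well before compound.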

Chain of human ether-à-go-go-related gene (hERG) potassium channel (Q12809 whole entry, looked up): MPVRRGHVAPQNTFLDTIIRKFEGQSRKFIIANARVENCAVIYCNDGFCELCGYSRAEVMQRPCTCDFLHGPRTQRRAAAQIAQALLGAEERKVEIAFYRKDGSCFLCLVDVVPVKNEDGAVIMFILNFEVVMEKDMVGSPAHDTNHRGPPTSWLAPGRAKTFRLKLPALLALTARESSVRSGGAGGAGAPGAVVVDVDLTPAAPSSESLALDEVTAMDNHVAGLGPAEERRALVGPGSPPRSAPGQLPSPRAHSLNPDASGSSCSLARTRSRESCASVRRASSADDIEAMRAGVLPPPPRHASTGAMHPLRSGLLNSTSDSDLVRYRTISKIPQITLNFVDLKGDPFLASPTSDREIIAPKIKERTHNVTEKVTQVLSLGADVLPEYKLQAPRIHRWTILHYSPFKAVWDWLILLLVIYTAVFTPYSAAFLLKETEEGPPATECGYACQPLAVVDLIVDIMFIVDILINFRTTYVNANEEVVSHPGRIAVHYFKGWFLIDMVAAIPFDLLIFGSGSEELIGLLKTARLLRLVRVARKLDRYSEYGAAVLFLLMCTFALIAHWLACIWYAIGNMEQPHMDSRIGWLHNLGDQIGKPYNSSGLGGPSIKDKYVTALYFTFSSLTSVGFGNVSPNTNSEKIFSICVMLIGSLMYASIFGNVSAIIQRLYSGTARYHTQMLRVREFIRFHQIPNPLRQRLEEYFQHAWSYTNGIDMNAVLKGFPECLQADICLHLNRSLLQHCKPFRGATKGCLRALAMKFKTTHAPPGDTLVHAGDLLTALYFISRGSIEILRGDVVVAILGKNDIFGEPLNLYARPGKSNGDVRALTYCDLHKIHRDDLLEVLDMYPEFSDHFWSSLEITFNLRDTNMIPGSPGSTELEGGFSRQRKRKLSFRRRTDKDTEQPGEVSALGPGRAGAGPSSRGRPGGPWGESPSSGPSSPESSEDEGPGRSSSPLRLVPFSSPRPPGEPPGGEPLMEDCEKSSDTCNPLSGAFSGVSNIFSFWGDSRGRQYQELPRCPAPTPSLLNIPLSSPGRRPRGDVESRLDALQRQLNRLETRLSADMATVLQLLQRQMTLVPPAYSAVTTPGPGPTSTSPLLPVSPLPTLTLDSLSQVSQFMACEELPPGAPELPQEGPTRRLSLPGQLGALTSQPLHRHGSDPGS

This test has as its target human ether-à-go-go-related gene (hERG) potassium channel (human, UniProt Q12809). Nature of the test: primary screen, population patch clamp on CHO cells stably expressing hERG.
As to `CN(CC(=O)Nc1ccc(Cl)c(Cl)c1)C(=O)CN1C(=O)NC2(CCCC2)C1=O`, the “hERG current change (%, negative = inhibition) at 10uM” value is on record as -4.3%.
To `O=c1[nH]c(CN2CCOCC2)nc2ccccc12` belongs 0.449%.
In the case of `CCNC(=O)COc1ccc(S(=O)(=O)Nc2ccccc2)cc1`, the “hERG current change (%, negative = inhibition) at 10uM” value is -1.85%.
Take `COc1ccc(/C=C/C(=O)NC2CCCCCCC2)cc1S(=O)(=O)N1CCOCC1`: the “hERG current change (%, negative = inhibition) at 10uM” value was -6.43%.
As to `COc1ccc([C@@H]2C=C(C(=O)O)O[C@H](OCCCCO)C2)cc1`, the “hERG current change (%, negative = inhibition) at 10uM” value is reported as 14.7%.
`c1csc(Cc2nn3c(-c4n[nH]c5c4CCC5)nnc3s2)c1`: the “hERG current change (%, negative = inhibition) at 10uM” value was -15.8%.
Regarding `COc1ccc([C@@H]2CC=C(C(=O)O)[C@H](c3cccc(Cl)c3)N2S(=O)(=O)c2ccc(Cl)cc2)cc1`, the “hERG current change (%, negative = inhibition) at 10uM” value amounted to 5.62%.
On to `Cc1c(Cl)cccc1N/C(SCC(=O)N1CCCCCC1)=C(/C#N)c1nc2ccccc2s1`, for which the “hERG current change (%, negative = inhibition) at 10uM” value is 0.438%.
On to `Cc1ccc(-c2ccc(=O)n(CCC(=O)N3CCN(c4ccccc4)CC3)n2)cc1`, for which the “hERG current change (%, negative = inhibition) at 10uM” value is -49.1%.
The result for `c1ccc(C[C@H]2CNCCN2CC2CCCCC2)cc1` reads -18.1%.
The result for `CCN1CCN(C(=O)CSc2nc(N)cc(N)n2)CC1` reads 44.8%.
Consider `COc1cc(CNc2ccc3[nH]c(=O)[nH]c3c2)ccc1OCc1cccc(C)c1`, for which the “hERG current change (%, negative = inhibition) at 10uM” value came out at 7.12%.
As for `O=C(c1cc(Br)ccc1OC(F)F)N1CCN2CCCC2C1` (stereo not drawn), the “hERG current change (%, negative = inhibition) at 10uM” value is -4.15%.
In the case of `C#Cc1ccc([C@@H]2C=C(C(=O)N3CCOCC3)O[C@H](OCc3ccc(CO)cc3)C2)cc1`, the “hERG current change (%, negative = inhibition) at 10uM” value is -27.6%.
Turning to `Cc1nc2scc(C)n2c(=O)c1S(=O)(=O)NCC1CCN(Cc2ccc(Cl)cc2)CC1`, the “hERG current change (%, negative = inhibition) at 10uM” value is recorded as -50.1%.
To `CCOc1ccc(C2Nc3cccc4cccc(c34)N2)cc1OC` belongs 9.42%.
To `COc1ccc(-c2cn3nc(C)c(C)nc3n2)cc1OC` belongs -2.88%; to `Cc1cc(Br)ccc1NC(=O)CN(C)C(=O)c1ccc(-n2cncn2)c([N+](=O)[O-])c1`, -64.4%; to `CCCN1CC(=O)N2C(c3ccccc3)c3[nH]c4ccccc4c3C[C@H]2C1=O` (stereo partly drawn), -17.9%.
The result for `CC(C)(C)c1ccc(-c2nc3c(C#N)c(-c4ccc5c(c4)OCO5)ccn3n2)cc1` reads 1.69%; that for `C/C(=N\OC(=O)NC(C)C)c1sc(-c2ccccc2)nc1C`, -3.85%.
On to `O=[N+]([O-])c1ccc(Cl)c(S(=O)(=O)Nc2ccc(S(=O)(=O)N3CCOCC3)cc2)c1`, for which the “hERG current change (%, negative = inhibition) at 10uM” value turned out to be 35.8%.
Consider `Br.c1ccc(-c2cc3n(c2)CCc2ccccc2-3)cc1`, for which the “hERG current change (%, negative = inhibition) at 10uM” value turned out to be 4.17%.
Turning to `Cc1ccc(N2CCN(C(=O)c3ccccc3NC(=O)C3CC=CCC3C(=O)O)CC2)cc1` (stereo not drawn), the “hERG current change (%, negative = inhibition) at 10uM” value came to 1.11%.
The result for `COc1ccc(N/C=C/c2nc(SC)nnc2C)cc1` reads 8.13%.
To `Cc1ccc(CN2C(=O)c3ccccc3Sc3ccc(C(=O)NCCCN4CCOCC4)cc32)cc1` belongs -2.12%; to `Cc1cccc(CCNC(=O)C2CCN(S(=O)(=O)c3c(C)noc3C)CC2)c1`, -23.2%; to `N#C/C(=C\c1ccco1)C(=O)Nc1ccc(S(N)(=O)=O)cc1`, 25.8%.
The result for `Nc1c(C(=O)c2ccc(Cl)cc2)sc2c1c(=O)[nH]c(=O)n2-c1ccccc1` reads -24.2%; that for `O=S(=O)(Nc1cc(S(=O)(=O)N2CCOCC2)ccc1NCC1CCCO1)c1ccccc1F` (stereo not drawn), -6.25%.
On to `Cc1nnsc1S(=O)c1ccc(Cl)c(Cl)c1` (stereo not drawn), for which the “hERG current change (%, negative = inhibition) at 10uM” value is recorded as -5.36%.
For `COC(=O)c1ccccc1NC(=O)CN1CCC(n2nnc3cc(C(F)(F)F)ccc32)CC1`, the “hERG current change (%, negative = inhibition) at 10uM” value is on record as -6.14%.
As to `CCOc1ccc(C2/C(=C(/O)c3ccc(S(=O)(=O)N4CCCCC4)cc3)C(=O)C(=O)N2CCCOC)cc1OC` (stereo not drawn), the “hERG current change (%, negative = inhibition) at 10uM” value is on record as 10.6%.
To `Cc1ccc(C)n1-c1ccc(N2CCOCC2)nc1` belongs -1.52%; to `CCN(C(=O)COC(=O)c1cc(=O)c2ccccc2o1)c1c(N)n(Cc2ccccc2)c(=O)[nH]c1=O`, -11.3%; to `Cc1ccc(NC(=O)CN(C)C(=O)Cn2ccsc2=N)cc1.Cl`, 15.9%.
Consider `CC(=O)c1nc(N2C(=O)C3CC=C(C)CC3C2=O)sc1C` (stereo not drawn), for which the “hERG current change (%, negative = inhibition) at 10uM” value came out at 4.28%.
Consider `CC1=NN(c2ccc(Cl)cc2)C(=O)/C1=C\c1cccn1-c1ccc(S(N)(=O)=O)cc1`, for which the “hERG current change (%, negative = inhibition) at 10uM” value is 0.43%.
Turning to `CCN(CCn1cccn1)C(=O)CCc1nnc(CCCc2ccccc2)o1`, the “hERG current change (%, negative = inhibition) at 10uM” value was -37%.
The result for `Cc1nc2sc(C(=O)O)c(N)c2c2c1COC(C)(C)C2` reads 9.19%; that for `CC1(C)CC(=O)C(C=NCCCn2ccnc2)=C(O)C1`, -3.97%.
The result for `O=C(N/N=C/c1cccs1)c1cccc(NC(=O)c2ccc(Cl)cc2)c1` reads 7.57%.
